Assay results as given in PubChem BioAssay AID886 (National Center for Advancing Translational Sciences (NCATS), 2007).
The campaign covered roughly 73,000 compounds. About 2,500 (3.4%) were called active. Inconclusive means that the source gave no clear call. Such entries were picked first, then a sample of the others. Calls follow the shape of the dose curve; as a rule, active = well fitted inhibition curve with a large enough effect; inconclusive = small, poorly fitted or top-dose-only effect; inactive = no such curve, though single readings can be large or run the other way. A potency beside an inconclusive call is a rough fit, not a confirmed value.

molecular target: 3-hydroxyacyl-CoA dehydrogenase type-2 (Homo sapiens) (UniProt Q99714); experiment: qHTS Assay for Inhibitors of HADH2 (Hydroxyacyl-Coenzyme A Dehydrogenase, Type II); details: recombinant HADH2, NADH fluorescence, beta-hydroxybutyryl-CoA; activity change, negative = inhibition: at 57.1 µM (top of the series); also: nearly all actives have a fitted effect of over 60% in size
From the text: Assay Overview: NIH Molecular Libraries Screening Centers Network [MLSCN] NIH Chemical Genomics Center [NCGC] Structural Genomics Consortium [SGC] Grant Number: None HADH2: Hydroxyacyl-Coenzyme A dehydrogenase, type II, was supplied by researchers at the Structural Genomics Consortium, Oxford University lab (PI Udo Oppermann). The mitochondrial enzyme 17-hydroxysteroid dehydrogenase type 10 (HSD17-10) previously classified as type II hydroxyacyl-CoA dehydrogenase (HADH2) catalyzes the NAD+ dependent oxidation of a variety of substrates including acyl-CoAs, androgens and neurosteroids as well as bile acids(Shafqat N, Marschall HU, Filling C, et al. Biochemical Journal. 2003;376(Pt 1):49-60). The role in neurodegeneration by binding to amyloid-peptide led to its identification (Oppermann UC, et al FEBS Letters. 1999;451(3):238-242 and Yan SD, et al. Nature. 1997;389(6652):689-695), and mutations in its gene appear to be causative for 2-methyl-3-hydroxybutyryl-CoA dehydrogenase deficiency (Ofman R, et al. American Journal of Human Genetics. 2003;72(5):1300-1307). The enzyme was produced by E.coli fermentation as His-tagged recombinant for the purpose of X-ray structure determination, and had been mass-spectrometry characterized. Inhibition of HADH2 activity was screened by utilizing beta-hydroxybutyryl coenzyme A as an electron donor and NAD+ as an electron acceptor/cofactor. An increase in the fluorescence intensity due to conversion of NAD+ to NADH was used to measure the enzyme activity.
Assay Protocol: Buffer: 100 mM Tris-HCl pH 9.0, containing 0.01 % Tween-20. Reagents/Controls: Buffer in columns 3 and 4 as negative control (no enzyme). Substrate/cofactor solution: 1 mM NAD+ and 90 uM beta-hydroxybutyryl coenzyme A (Sigma-Aldrich, St. Louis, MO) final concentrations dispensed throughout the plate. Enzyme: 20 nM HADH2 final concentration in columns 1, 2, 5-48. Column 1 is neutral (100% activity). Column 2 contained titration of apomorphine (Sigma-Aldrich, A 4393, PubChem CID 2215, top concentration 500 uM, then 1:2 dilution in duplicate) Assay Steps: Three uL of enzyme were dispensed to 1536-well Greiner black solid bottom plates. Compounds and controls (23 nL) were transferred via Kalypsys PinTool. The plates were incubated for 15 min at room temperature, and then 1 uL of substrate/cofactor solution was added to start the reaction. The plates were immediately transferred to and read every 30 seconds for 4 min on ViewLux High-throughput CCD imager (Perkin-Elmer) using 360 nm excitation and 450 nm emission fluorescence protocol. The fluorescence intensity difference between the last and the first time points was used to compute reaction progress.
% is scaled to controls: 0 for no effect and ±100 for the full control effect; potency is read from the fitted curve at half-maximal effect; tags tell the direction and shape of the fitted curve.

UniProt Q99714, sequence (Q99714 whole entry, looked up): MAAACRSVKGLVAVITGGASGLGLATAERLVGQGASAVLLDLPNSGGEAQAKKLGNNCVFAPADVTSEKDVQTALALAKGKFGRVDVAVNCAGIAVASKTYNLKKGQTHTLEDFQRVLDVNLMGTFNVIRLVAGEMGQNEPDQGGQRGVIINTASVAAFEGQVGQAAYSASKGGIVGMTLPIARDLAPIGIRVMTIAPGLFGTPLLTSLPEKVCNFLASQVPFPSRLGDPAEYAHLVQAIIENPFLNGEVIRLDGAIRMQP
UniProt Q99714, sequence (Q99714 whole entry, looked up): as above

SMILES	Potency	activity change, negative = inhibition
COC(=O)c1[nH]c2cccc(OC)c2c1NC(=O)CCN1CCN(c2ccccc2OC)CC1	inconclusive: 31.6 µM [inhibitor, single point]	–
CC1CCN(C(=O)CSc2nncn2-c2ccccn2)CC1	inconclusive: 39.8 µM [inhibitor, single point]	–
O=C(c1ccco1)N1CCN(C(=O)c2cc(-c3ccccn3)nc3ccc(Cl)cc23)CC1	inconclusive: 31.6 µM [inhibitor, single point]	–
CCOC(=O)CCc1c(C)c2ccc(OCc3nn[nH]n3)cc2oc1=O	active: 20 µM	–
Cc1cc(=O)oc2cc(NC(=O)CCCC(=O)O)ccc12	active: 12.6 µM	–
CCCOc1ccc2c3c(c(=O)oc2c1)CCCC3	–	inactive: 186%
Cc1nn(-c2ccccc2)c2sc(C(=O)OCC(=O)N3CCCCC3)cc12	inconclusive: 31.6 µM [inhibitor, single point]	–
Cc1ncsc1CCSc1n[nH]c(=O)n1-c1ccccc1	inconclusive: 31.6 µM [inhibitor, single point]	–
CC(=NCc1cccnc1)C1=C(O)c2ccccc2C1=O	inconclusive: 39.8 µM [inhibitor, single point]	–
N#Cc1sc2nc(-c3ccccc3)cc(-c3ccco3)c2c1N	active: 7.94 µM	–
Cn1c(C(=O)N2CCN(C(=O)c3ccco3)CC2)cc2c(=O)n3ccccc3nc21	active: 31.6 µM	–
CC(C)n1c(=NC(=O)c2ccco2)c(C#N)cc2c(=O)n3ccccc3cc21	inconclusive: 31.6 µM [inhibitor, single point]	–
N#Cc1nc(-c2ccco2)oc1NCc1ccco1	inconclusive: 31.6 µM [inhibitor, single point]	–
COc1ccc(OC)c(-c2cc(C(=O)Nc3cc(C)on3)no2)c1	active: 25.1 µM	–
CCOc1ccc(OCC(=O)c2c(O)c3ccccc3oc2=O)cc1	inconclusive: 3.16 µM [inhibitor, partial curve]	–
CCCC(=O)Nc1nnc(COC)s1	inconclusive: 6.31 µM [inhibitor, single point]	–
CCC1C(=O)n2nc(-c3ccccc3)cc2N=C1C (stereo not given)	active: 25.1 µM	–
Cc1ccccc1C(C(=O)NCc1ccco1)N(CC1CCCO1)C(=O)Cn1nnc2ccccc21 (stereo not given)	–	inactive: 8.28%
O=C(Nc1cccc2cccnc12)c1cccnc1	–	inactive: 6.66%
CCOC(=O)CCN1C(=O)[C@H]2[C@H]3[C@H](O)[C@H](O)C/C(=N/OCc4ccccc4)[C@@H]3CC[C@@H]2C1=O	–	inactive: 2.95% [at 11.4 µM]
Cc1cc(C)c(C#N)c(SCC(=O)Nc2nnc(-c3ccccc3)s2)n1	inconclusive: 31.6 µM [inhibitor, single point]	–
CCOC(=O)c1nc(S(C)(=O)=O)ncc1Cl	inconclusive: 25.1 µM [inhibitor, single point]	–
CCn1c(=O)cc(SCC(=O)Nc2cccnc2)c2ccccc21	inconclusive: 12.6 µM [inhibitor, partial curve]	–

SMILES	Potency	activity change, negative = inhibition
Nc1c(NCCN2CCOCC2)c2ccccc2oc1=O	inconclusive: 25.1 µM [inhibitor, partial curve]	–
COC(=O)c1c(NC(=O)c2c(C)noc2C)sc2c1CCCCCC2	inconclusive: 3.98 µM [inhibitor, single point]	–
CCOC(=O)N1CCC(NC(=O)c2cc3c(-c4ccc(OC)c(OC)c4)nn(C)c3s2)CC1	inconclusive: 39.8 µM [inhibitor, single point]	–
O=C(NCCc1ccccc1)c1cnc2sccn2c1=O	inconclusive: 39.8 µM [inhibitor, single point]	–
CCOC(=O)C1Cc2cc3c(cc2C1=O)CC(C(=O)OCC)C3=O (stereo not given)	active: 25.1 µM	–
Cc1c(C(=O)NC2CCCc3ccccc32)oc2ccc(S(=O)(=O)N3CCOCC3)cc12 (stereo not given)	inconclusive: 7.94 µM [inhibitor, single point]	–
COc1ccc2cc3cc(C(=O)NCCCN4CCOCC4)oc3nc2c1	active: 3.16 µM	–
CCOC(=O)N1CCN(Cc2cccs2)CC1	inconclusive: 1.26 µM [inhibitor, single point]	–
CCOC(=O)C1=C(C)N=c2s/c(=C\c3ccncc3)c(=O)n2C1c1ccc2c(c1)OCO2 (stereo not given)	inconclusive: 39.8 µM [inhibitor, single point]	–
COc1ccc(OC)c(-c2cc(C(=O)Nc3c(C)nn(Cc4ccccc4Cl)c3C)no2)c1	active: 25.1 µM	–
Cc1cccc(-c2nsc(SCC(=O)Nc3nccs3)n2)c1	inconclusive: 15.8 µM [inhibitor, partial curve]	–
O=c1[nH]nnc2sc3c(c12)CCCC3	inconclusive: 31.6 µM [inhibitor, single point]	–
COC(=O)c1cc(OC)c(OC)cc1NC(=O)c1c(-c2ccccc2Cl)noc1C	inconclusive: 6.31 µM [inhibitor, single point]	–
COC(=O)c1[nH]c2cccc(OC)c2c1NC(=O)CCN1CCN(c2ccccc2F)CC1	inconclusive: 39.8 µM [inhibitor, single point]	–
O=C1c2sc3nc4ccccc4n3c2C(=O)N1c1ccccc1Cl	active: 7.94 µM	–
COC(=O)n1c(=O)oc2cc(S(=O)(=O)N3CCCCC3)ccc21	inconclusive: 15.8 µM [inhibitor, partial curve]	–
CCC(C)Sc1nc2c(c(=O)[nH]c(=O)n2C)n1C (stereo not given)	inconclusive: 20 µM [inhibitor, partial curve]	–
COc1ccccc1C1NC(=O)NC(C)=C1C(=O)Nc1cccc(C)c1C (stereo not given)	inconclusive: 31.6 µM [inhibitor, single point]	–
COC(=O)c1cc2sccc2n1Cc1nc(-c2ccc(OC)cc2)oc1C	inconclusive: 15.8 µM [inhibitor, partial curve]	–
Cc1sc2nc(C(C)C)nc(SCC(=O)NCc3ccco3)c2c1C	inconclusive: 15.8 µM [inhibitor, partial curve]	–
CCCOc1ccc(-c2nc(C#N)c(N3CCN(CC)CC3)o2)cc1	inconclusive: 39.8 µM [inhibitor, single point]	–
O=C(COC(=O)c1n[nH]c2ccccc12)NC(=O)NC1CCCCC1	–	inactive: -5.66%
